Data published in the supplement of paper PMC10338343.
± gives the standard deviation. Over roughly 5,500 sequences, “pre-steady-state target cleavage rate” has its median near 0.1; the highest 2% begin near 0.64. Only a part is listed here, and it is no random draw.

Test system: MIWI (PIWIL1) piRISC loaded with piRNA #2 (30 nt)
Assay: pre-steady-state target cleavage rate (min^-1); MIWI and MILI are mouse PIWI proteins and EfPiwi is from a freshwater sponge; tags in brackets are library labels; higher = faster piRNA-guided slicing of the target
Conditions: guide: piRNA #2 5'p-UUAGGUAACCCAGUAGAUCCAGAGGAAUUC; auxiliary factor: 500 nM mouse GTSF1
Outline: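 Three pooled Cleave-'n-Seq trials supplied the data, with k3 capped at 0.0001 min^-1. In each, […] transcribed, DNA-blocked target RNA library and 1 nM active affinity-purified piRISC with one synthetic guide reacted in HEPES–potassium acetate buffer at 33 °C for 0–8 or 0–960 min, with or without 500 nM GTSF1 partner protein. Uncleaved targets were sequenced and normalised to depth and to weakly complementary targets. A burst-and-steady-state fit provided the pre-steady-state cleavage rate.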

In order of falling “pre-steady-state target cleavage rate” value:
1. GAAUUCCUCUGGUUCUACUGGGUUACGUAA  0.618 ± 0.035
2. CUUAACCUCAGGAUGUACUGGGUUACCUAA  0.587 ± 0.053
3. GAAUUCCUCUGGAUCUACUGGGUUAGCUAA  0.519 ± 0.062
4. CAAUUCCACUGGAUCUACUGGGUUACCUUA  0.506 ± 0.076
5. CUAUUCCUCUGGUUGUACUGGGUUACCUAA  0.505 ± 0.027
6. CUAUUCCGCUGGAUCUACUGGGUUACCUAA  0.479 ± 0.047
7. CUAUUGCUCUGGAUCUACUGGGUUACGUAA  0.472 ± 0.053
8. CUUAACCUCUGGUUCAACUGGGUUACCUAA  0.455 ± 0.045
9. GAAUUCGUCUCGAUCUACUGGGUUACCUAA  0.451 ± 0.052
10. CAAAUUCCUCUGGAUCUACUGGGUUACCUAA  0.44 ± 0.05
11. CUAUACCUCUGCAUCUACUGGGUUACCUAA  0.439 ± 0.042
12. CUAUUCCUCUGGAUCUACUGGGUUACCUA  0.427 ± 0.067
13. CUUUUCCUCUGGAUCUUCUGGGUUACGUAA  0.42 ± 0.043
14. CUAUUCCUCUGGAACUACUGGGUUACCUAA  0.42 ± 0.038
15. CUUAUCCUCUGGGAUCUACUGGGUUACCUAA  0.419 ± 0.035
16. CUUAACCUCUGGAUUUACUGGGUUACCUAA  0.411 ± 0.037
17. CUUUUCCACUGGAUCUACUGGGAUACCUAA  0.408 ± 0.03
18. CAUUUCCUCUGGAUCUACUGGGUUAGCUAA  0.403 ± 0.081
19. CAAUUUCUCUGGAUCUACUGGGUUACCUAA  0.388 ± 0.056
20. CUUAUGCACUGGAUCUACUGGGUUACCUAA  0.345 ± 0.029
21. CAAUUCCUCAGGAUCUACUGGGUAACCUAA  0.336 ± 0.056
22. CAAUACCUCUGGAUCUUCUGGGUUACCUAA  0.329 ± 0.046
23. CUUAUCCUCUGGAUCUACUGGGUUACCCUAA  0.327 ± 0.1
24. CAAUUCCUCUGGAUCUACUGGGUCACCUAA  0.327 ± 0.055
25. GAAUUCCUCUGGAACUUCUGGGUUACCUAA  0.325 ± 0.037
26. CAAUUCCUCUGGAUGAACUGGGUUACCUAA  0.315 ± 0.049
27. GAAUUCCUCUCGAUCUACUGGGUAACCUAA  0.293 ± 0.037
28. CAAUUCCUCUGGAUCUACUGGGUUUCGUAA  0.281 ± 0.058
29. CUUAAGGUCUGGGUCUACUGGGUUACCUAA  0.275 ± 0.027
30. CUUAACCUCUGGUUCUACUGGGUUACCAAA  0.273 ± 0.069
31. CUUAACCUCUGGAUCUACUGGGUUAUCUAA  0.261 ± 0.03
32. CUUUUCGUCUGGAUCUACUGGGAUACCUAA  0.261 ± 0.037
33. CUUAAGCUCUCGAUCUACUGGGAUACCUAA  0.257 ± 0.023
34. CUUUACCUCUGGAUCUACUGGGUUACCUAA  0.255 ± 0.035
35. GAAUUCCUCUGGAUCAACUGGGUUUCCUAA  0.248 ± 0.057
36. CUUUUCCUCUGGUUCUACUGGGUUACCAAA  0.217 ± 0.045
37. CUAUUCCUCUGGAUCUACAGGGUUACCUUA  0.214 ± 0.024
38. CUUUGUCCUCUGGAUCUACUGGGUUACCUAA  0.205 ± 0.038
39. CUUUUCCUCUGGAUCUCCUGGGUUACCUAA  0.199 ± 0.036
40. CUUAAGCUCUCGAUCUACAGGGUUACCUAA  0.185 ± 0.012
41. CUUAUCCUGUGGAUCUACUGGGUUUCCUAA  0.181 ± 0.035
42. CAAUUCCUCUGGAUCUACUGGGUAACCUUA  0.168 ± 0.044
43. CUUAUCCUCGUGGAUCUACUGGGUUACCUAA  0.161 ± 0.032
44. CUUAAGGGCUGGAUCUACUGGGUUACCUAA  0.159 ± 0.037
45. CUUAACCUCUGGAACUAGUGGGUUACCUAA  0.139 ± 0.016
46. CUAUUCCUGACGAUCUACUGGGUUACCUAA  0.133 ± 0.023
47. CUUAAGGUCUGGAUCAACUGCGUUACCUAA  0.121 ± 0.042
48. CUUAACCUCUGGAUGUACUGGGUUAGCUAA  0.12 ± 0.015
49. CUUAUGCUCUGGAUCUACAGGGUUACCUAA  0.106 ± 0.012
50. CUUAAGGUCUGGAUCUACUGCGAUACCUAA  0.0768 ± 0.023
51. CUUUUCCUGUGGAUCUACUCGGUUACCUAA  0.0672 ± 0.009
52. CUUAACCUCUGGAUCCUACUGGGUUACCUAA  0.0614 ± 0.0092
53. CUUAAGGACUGAAUCUACUGGGUUACCUAA  0.0543 ± 0.027
54. CUUAAGCUCUGGAACUACUGGGUUUCCUAA  0.0538 ± 0.011
55. GAUUUCCUCUGGAUCUAGUGGGUUACCUAA  0.0505 ± 0.012
56. CUUAAGCUCUGGAUCUACUGGGAAACCUAA  0.0505 ± 0.011
57. CUUAAGGUCUGGAUCUACUGGGAUACCUUA  0.0489 ± 0.01
58. CUUAAGCUCUGGAUCUACUCGGUUACCUAA  0.0434 ± 0.01
59. CUUAAGCUGUGGAUCUACUGGGUAACCUAA  0.0396 ± 0.028
60. GUAAUUCCUCUGGAUCUACUGGGUUACCUAA  0.0353 ± 0.019
61. CUUAAGGAGUGGAUUUACUGGGUUACCUAA  0.0327 ± 0.0098
62. CUUAAGGACUGGUUCUACUGGGUUACCUUA  0.028 ± 0.021
63. CUUAAGGAGUGGAUCUACUGGGAUACGUAA  0.0243 ± 0.013
64. CUUAAGGACAGGAUCUACUGGCUUACCUAA  0.0138 ± 0.013
65. CUUUUCCUCUGGAUCUACUGGCAUACCUAA  0.00991 ± 0.0033
66. CUUAAGGAGAGGAUCUACUGGGUUACCUCAA  0.00948 ± 0.0055
67. CUUAAGGAGUGGAUCUACUGGGUAUCCUAA  0.0075 ± 0.0043
68. CUUAAGGAGAGGAUCUACAGGGUUACGUAA  0.00521 ± 0.0049
69. CUUAAGGAGAGGUAUCUACUGGGUUACCUAA  0.00502 ± 0.0035
70. CUUAAGGAGACGAUCUAGUGCGUUACCUAA  0.00344 ± 0.0032
71. CUUAAGGAGACCAUCUACUGCGUUACGUAA  0.00341 ± 0.002
72. CUUAAGGAGACCUAGUUCUGCGUUACCUAA  0.00336 ± 0.0026
